Data from the supplement of paper PMC11417369.
This is one part of the list.

tested on: PfHDP1 homeodomain (GST-tagged); test: gcPBM binding intensity (ln(normalized median fluorescence intensity)); higher = stronger DNA binding
Summary of the method: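 Using an Agilent 4 × 180k array, primer-extended double-stranded 36-bp intergenic genomic probes and negative controls were exposed for 1 h to GST-fused P. falciparum DNA-binding domains expressed in E. coli. Binding was carried out in 1× PBS with 1% milk, 0.2 mg/ml BSA, 0.5% salmon testes DNA and 0.03% Triton X-100, and protein was detected with Alexa488 anti-GST antibody and a 488 nm scan. Binding intensity is the highest Masliner-normalised natural-log median intensity across replicate spots of either probe orientation.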

Row | Sequence | gcPBM binding intensity (ln)
1 | GTAAAATTAAAAATAACACACAAAAAAAAAAAAAAA [CACACA_site800] | 6.12
2 | GGATACATATGTAAAAGTACACATGAATATATACAT [XGTACX_site6469] | 6.57
3 | TATATATGTATGTATGTACACACAAAAAATGGAATA [CACACA_site9235] | 7.11
4 | AAGAGAGAGAAATATGCACACATAAGGGAAATAAAT [CACACA_site8300] | 9.33
5 | AATAAACATTATTTTCGTATTCCAATTCTTTTTTTT [XGTACX_negctrl_site374] | 6.24
6 | TTTTTTTAAAACAAAAAAAAAAAAAAAAAAAAAAAA [TGCATGCA_negctrl_site418] | 5.72
7 | TTCTTTTTTATTTATACATGCAATAAAAAATTGATT [TGCATGCA_site730] | 6.71
8 | ATAATATATATATTTTGTACACATGAAAAGGAGGAT [XGTACX_site5034] | 7.62
9 | AAAAAAAAGAAAAACACACACATATTTATTTATAAC [CACACA_site6600] | 6.45
10 | TAAATAAATTTATGTACACACACAAATAAATACATA [CACACA_site5107] | 6.49
11 | ATAATATATGTATGTATGCACTTTTATTATTTTTTT | 7.24
12 | TATATATATATATATAGTACACATATCACATAAATG [XGTACX_site6379] | 9.21
13 | TATATATTAAATTATAGTACACATTATATATAATTA [XGTACX_site4841] | 6.55
14 | AATGAAGACTTTTTTACACACTTCATATCTTATAGA [CACACA_site7046] | 6.72
15 | AGCCACAATACGGAAACACACAAGTTATTTTATCAT [CACACA_site2724] | 6.59
16 | AAATTTTTTCCGATTTGTACTTATATTTCTTTATTA [XGTACX_site1762] | 6.61
17 | AATATTTTTAATTAATGTACATATTTATTATATAAA [XGTACX_site5112] | 6.34
18 | TTTTTATGAATTCTTTTGTTAATAATAATATGTTGT [TGCATGCA_negctrl_site198] | 6.55
19 | TTTTAACGTAATTCAAATGAGCAGAATTTTTTAAAA [CACACA_negctrl_site1800] | 6.28
20 | CTATTACAAAGAAATTGTACATATATATATAAAAAC [XGTACX_site8800] | 6.81
21 | ATATATATATATGTACACATATATGTGTTTGTTTTT [GTGCAC_negctrl_site5] | 8.99
22 | ATCTTTCAATAATTCACACATATATATATATATATA [CACACA_site4598] | 9.48
23 | TATAATAATACTTATTGTACTATTAGTTTAATTCAT [XGTACX_site6638] | 6.15
24 | ATATATTATATATATAGTACGTATATAAATTTAATT [XGTACX_site5041] | 6.45
